Test results: article PMC11914695
Results are given in words; binding and its absence hold for the method and conditions named. Binding seen in cells or lysates may run through a third protein. Some entries that bind do so weakly or less than the wild type. One block for each molecule: values may come before it.

Chains of the proteins cited; added tags and fusions are not shown. Lines headed by an entry give the natural chain unless they say otherwise; changes in a name come on top. A line that says so, or that is headed by a name, gives the form on record, which may keep a tag or linker. Residues count along the entry.
UniProt P54274: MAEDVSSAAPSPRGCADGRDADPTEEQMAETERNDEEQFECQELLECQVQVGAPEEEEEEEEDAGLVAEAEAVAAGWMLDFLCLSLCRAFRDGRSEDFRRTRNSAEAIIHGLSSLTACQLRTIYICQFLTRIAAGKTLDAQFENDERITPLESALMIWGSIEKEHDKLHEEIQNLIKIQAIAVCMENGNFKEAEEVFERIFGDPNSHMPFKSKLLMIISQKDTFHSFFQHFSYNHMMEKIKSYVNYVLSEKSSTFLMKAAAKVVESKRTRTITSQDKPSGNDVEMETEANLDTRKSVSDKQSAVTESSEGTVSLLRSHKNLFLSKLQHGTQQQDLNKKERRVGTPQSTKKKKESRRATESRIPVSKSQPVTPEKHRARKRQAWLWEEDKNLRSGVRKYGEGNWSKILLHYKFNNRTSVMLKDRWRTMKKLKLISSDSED
Flag-TRF1^shR-ΔHD (P54274, form named): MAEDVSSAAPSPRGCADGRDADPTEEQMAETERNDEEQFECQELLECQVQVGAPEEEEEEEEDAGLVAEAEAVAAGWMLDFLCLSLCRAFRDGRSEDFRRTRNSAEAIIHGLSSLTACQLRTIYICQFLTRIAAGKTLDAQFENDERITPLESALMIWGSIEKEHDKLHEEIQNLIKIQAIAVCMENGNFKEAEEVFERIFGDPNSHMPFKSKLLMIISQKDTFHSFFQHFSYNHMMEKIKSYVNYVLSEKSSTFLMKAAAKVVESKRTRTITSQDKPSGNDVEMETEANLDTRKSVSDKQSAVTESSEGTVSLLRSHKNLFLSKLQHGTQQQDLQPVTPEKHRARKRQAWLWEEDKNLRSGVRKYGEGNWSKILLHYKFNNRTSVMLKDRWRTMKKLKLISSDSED
Flag-TRF1^shR-2A (P54274, form named): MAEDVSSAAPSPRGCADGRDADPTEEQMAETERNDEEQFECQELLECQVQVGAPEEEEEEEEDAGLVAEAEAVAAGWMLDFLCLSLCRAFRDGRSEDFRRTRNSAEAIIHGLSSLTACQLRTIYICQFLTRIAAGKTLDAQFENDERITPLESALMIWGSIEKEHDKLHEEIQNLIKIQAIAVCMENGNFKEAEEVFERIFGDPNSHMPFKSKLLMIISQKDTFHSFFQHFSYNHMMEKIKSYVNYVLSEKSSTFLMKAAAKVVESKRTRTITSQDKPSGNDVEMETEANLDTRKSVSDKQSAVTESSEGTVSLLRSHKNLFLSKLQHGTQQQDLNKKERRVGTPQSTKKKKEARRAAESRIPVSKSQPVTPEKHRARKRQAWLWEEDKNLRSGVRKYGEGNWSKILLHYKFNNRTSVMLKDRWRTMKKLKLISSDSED
Flag-TRF1^shR-2D (P54274, form named): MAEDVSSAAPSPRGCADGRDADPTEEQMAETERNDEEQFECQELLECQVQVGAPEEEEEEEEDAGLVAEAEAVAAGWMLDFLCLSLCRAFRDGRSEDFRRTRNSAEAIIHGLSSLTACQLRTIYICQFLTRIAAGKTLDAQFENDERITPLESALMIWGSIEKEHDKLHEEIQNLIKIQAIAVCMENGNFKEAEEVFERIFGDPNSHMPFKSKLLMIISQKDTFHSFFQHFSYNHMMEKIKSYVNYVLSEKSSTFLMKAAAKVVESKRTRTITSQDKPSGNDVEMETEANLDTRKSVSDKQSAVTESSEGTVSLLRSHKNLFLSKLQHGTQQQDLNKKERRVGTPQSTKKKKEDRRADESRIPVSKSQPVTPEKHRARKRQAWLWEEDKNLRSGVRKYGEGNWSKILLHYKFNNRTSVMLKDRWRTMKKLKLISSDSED
UniProt Q15554, residues 43-542: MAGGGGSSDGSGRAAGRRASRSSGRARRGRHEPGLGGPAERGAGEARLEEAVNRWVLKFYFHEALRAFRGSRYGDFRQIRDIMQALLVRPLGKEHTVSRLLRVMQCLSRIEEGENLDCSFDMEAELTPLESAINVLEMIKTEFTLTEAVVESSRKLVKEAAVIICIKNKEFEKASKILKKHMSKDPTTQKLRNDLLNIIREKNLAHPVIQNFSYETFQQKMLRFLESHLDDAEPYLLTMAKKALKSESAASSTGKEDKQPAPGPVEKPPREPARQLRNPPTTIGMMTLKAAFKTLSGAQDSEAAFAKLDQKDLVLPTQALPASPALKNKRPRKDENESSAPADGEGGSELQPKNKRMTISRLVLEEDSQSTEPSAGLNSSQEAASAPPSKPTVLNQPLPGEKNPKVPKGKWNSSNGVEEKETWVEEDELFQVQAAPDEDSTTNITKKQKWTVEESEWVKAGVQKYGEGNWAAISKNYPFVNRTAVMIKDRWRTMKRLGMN
UniProt Q9NQS7: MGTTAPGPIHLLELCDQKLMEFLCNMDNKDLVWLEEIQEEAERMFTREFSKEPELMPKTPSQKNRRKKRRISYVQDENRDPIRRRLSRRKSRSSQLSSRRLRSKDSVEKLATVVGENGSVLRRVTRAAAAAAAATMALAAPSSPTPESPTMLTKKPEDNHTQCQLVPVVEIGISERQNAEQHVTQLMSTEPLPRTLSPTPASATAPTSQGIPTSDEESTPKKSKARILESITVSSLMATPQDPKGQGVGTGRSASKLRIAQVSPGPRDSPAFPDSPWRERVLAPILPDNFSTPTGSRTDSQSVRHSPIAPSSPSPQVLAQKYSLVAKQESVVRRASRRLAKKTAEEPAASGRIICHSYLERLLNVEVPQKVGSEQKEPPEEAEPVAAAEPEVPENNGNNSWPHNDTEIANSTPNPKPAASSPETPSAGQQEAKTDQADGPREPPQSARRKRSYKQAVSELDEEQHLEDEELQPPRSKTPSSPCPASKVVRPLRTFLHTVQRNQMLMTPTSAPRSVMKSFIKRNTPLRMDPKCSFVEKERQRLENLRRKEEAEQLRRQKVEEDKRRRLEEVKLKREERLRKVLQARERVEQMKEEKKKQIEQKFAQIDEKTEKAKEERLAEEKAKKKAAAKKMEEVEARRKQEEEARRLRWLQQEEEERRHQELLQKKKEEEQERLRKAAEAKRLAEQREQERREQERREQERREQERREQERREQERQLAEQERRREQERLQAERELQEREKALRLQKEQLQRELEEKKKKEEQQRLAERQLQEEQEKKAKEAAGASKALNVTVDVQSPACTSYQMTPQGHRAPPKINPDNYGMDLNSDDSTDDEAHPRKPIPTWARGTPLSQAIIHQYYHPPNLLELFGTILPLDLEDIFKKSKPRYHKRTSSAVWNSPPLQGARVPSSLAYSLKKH
UniProt Q96GD4: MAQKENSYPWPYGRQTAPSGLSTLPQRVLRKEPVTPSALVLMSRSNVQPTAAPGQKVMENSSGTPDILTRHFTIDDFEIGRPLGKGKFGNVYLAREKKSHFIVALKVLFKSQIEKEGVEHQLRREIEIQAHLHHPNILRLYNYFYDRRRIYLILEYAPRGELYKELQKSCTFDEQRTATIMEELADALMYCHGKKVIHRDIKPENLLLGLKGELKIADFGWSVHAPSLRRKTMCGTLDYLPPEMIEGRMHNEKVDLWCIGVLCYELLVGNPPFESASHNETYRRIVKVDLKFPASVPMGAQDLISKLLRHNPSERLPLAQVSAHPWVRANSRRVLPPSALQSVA
UniProt O15392: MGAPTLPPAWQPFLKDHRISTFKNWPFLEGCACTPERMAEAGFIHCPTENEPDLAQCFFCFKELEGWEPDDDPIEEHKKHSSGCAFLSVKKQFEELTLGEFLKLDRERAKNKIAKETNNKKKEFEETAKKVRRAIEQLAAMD
UniProt P54132: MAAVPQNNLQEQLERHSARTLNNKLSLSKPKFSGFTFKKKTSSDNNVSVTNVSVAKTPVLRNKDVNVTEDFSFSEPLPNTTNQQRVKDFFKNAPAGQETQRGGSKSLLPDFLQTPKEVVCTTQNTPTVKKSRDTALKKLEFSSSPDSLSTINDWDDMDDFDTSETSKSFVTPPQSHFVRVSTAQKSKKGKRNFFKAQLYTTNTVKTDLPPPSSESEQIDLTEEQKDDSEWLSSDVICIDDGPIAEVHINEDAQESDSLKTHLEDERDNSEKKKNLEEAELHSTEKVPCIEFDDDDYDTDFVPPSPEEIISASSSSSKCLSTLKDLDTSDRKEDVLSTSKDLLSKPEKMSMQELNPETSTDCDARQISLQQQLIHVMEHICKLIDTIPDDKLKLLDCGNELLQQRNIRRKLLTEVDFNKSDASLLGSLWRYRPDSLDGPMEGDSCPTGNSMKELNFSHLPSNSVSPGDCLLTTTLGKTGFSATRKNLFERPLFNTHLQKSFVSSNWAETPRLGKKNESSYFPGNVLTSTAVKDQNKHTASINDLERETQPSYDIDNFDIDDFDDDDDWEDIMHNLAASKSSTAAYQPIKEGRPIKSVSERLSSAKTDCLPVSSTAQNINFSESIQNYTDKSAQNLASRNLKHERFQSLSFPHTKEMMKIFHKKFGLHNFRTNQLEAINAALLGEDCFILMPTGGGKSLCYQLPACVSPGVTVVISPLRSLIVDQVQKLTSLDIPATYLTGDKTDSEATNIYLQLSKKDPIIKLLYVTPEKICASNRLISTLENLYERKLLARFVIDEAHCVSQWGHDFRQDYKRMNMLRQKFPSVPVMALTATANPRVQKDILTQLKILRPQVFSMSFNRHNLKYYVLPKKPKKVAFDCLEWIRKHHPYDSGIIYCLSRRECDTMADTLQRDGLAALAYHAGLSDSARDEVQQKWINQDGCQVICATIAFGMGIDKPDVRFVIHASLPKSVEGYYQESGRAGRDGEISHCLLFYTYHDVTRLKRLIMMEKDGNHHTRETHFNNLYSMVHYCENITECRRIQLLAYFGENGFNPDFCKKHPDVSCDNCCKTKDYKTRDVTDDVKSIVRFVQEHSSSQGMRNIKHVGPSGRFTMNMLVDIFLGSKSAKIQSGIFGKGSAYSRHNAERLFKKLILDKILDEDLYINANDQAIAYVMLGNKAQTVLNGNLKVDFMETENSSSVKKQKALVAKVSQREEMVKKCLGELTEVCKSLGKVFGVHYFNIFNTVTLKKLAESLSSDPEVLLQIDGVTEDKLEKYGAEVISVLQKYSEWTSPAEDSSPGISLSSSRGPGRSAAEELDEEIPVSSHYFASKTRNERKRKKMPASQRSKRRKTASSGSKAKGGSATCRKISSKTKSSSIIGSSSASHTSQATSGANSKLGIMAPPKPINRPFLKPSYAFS

How the values were obtained:
[1] = molecular target: Flag-TRF1^shR-ΔHD (human) (UniProt P54274); test: co-IP; anti-Flag immunoprecipitation from TRF1 shRNA HT1080 6TG expressing Flag-TRF1 alleles, thymidine block and release into 150 ng/mL nocodazole for 16 h; immunoblots
[2] = molecular target: Flag-TRF1^shR-2A (human) (UniProt P54274); test: as above
[3] = molecular target: Flag-TRF1^shR-2D (human) (UniProt P54274); test: as above
[4] = molecular target: Flag-TRF1^shR-WT (human) (UniProt P54274); test: as above
[5] = molecular target: TRF1 (endogenous) (human (endogenous in HT1080 6TG)) (UniProt P54274); test: co-IP; endogenous TRF1 immunoprecipitated from HT1080 6TG treated 16 h with 150 ng/mL nocodazole (mitotic arrest); immunoblots
[6] = molecular target: TRF1 (endogenous) (human (endogenous in HT1080 6TG)) (UniProt P54274); test: condition: only asynchronous cultures (no nocodazole); co-IP; endogenous TRF1 immunoprecipitated from asynchronous HT1080 6TG (no nocodazole); immunoblots
[7] = molecular target: Myc-TRF2 (human) (UniProt Q15554); test: co-IP; Flag-TRF1 or Myc-TRF2 immunoprecipitated from extracts of mitotically arrested HT1080 6TG, extracts treated with Benzonase (50 U/mL, on ice) before the co-IP; immunoblots
[8] = molecular target: Flag-TRF1^shR-WT (human) (UniProt P54274); test: as above

binding [1]: no binding | binding [2]: no binding | binding [3]: binds
Molecule: INCENP (from UniProt Q9NQS7 1-918)

binding [1]: no binding | binding [2]: no binding | binding [4]: binds | binding [3]: binds | binding [5]: binds | binding [6]: no binding | binding [7]: binds | binding [8]: binds
Molecule: Aurora Kinase B (from UniProt Q96GD4 1-344) (enzyme)

Molecule: Survivin (from UniProt O15392 1-142)
binding [1]: no binding | binding [2]: no binding | binding [4]: binds | binding [3]: binds | binding [5]: binds | binding [6]: no binding

binding [1]: binds | binding [2]: binds | binding [4]: binds | binding [3]: binds | binding [5]: binds | binding [6]: no binding | binding [7]: binds | binding [8]: binds
Molecule: BLM (from UniProt P54132 1-1417) (enzyme)

binding [1]: binds | binding [2]: binds | binding [4]: binds | binding [3]: binds
B1: TOP3A (enzyme, UniProt Q13472 1-1001)
chain: MIFPVARYALRWLRRPEDRAFSRAAMEMALRGVRKVLCVAEKNDAAKGIADLLSNGRMRRREGLSKFNKIYEFDYHLYGQNVTMVMTSVSGHLLAHDFQMQFRKWQSCNPLVLFEAEIEKYCPENFVDIKKTLERETRQCQALVIWTDCDREGENIGFEIIHVCKAVKPNLQVLRARFSEITPHAVRTACENLTEPDQRVSDAVDVRQELDLRIGAAFTRFQTLRLQRIFPEVLAEQLISYGSCQFPTLGFVVERFKAIQAFVPEIFHRIKVTHDHKDGIVEFNWKRHRLFNHTACLVLYQLCVEDPMATVVEVRSKPKSKWRPQALDTVELEKLASRKLRINAKETMRIAEKLYTQGYISYPRTETNIFPRDLNLTVLVEQQTPDPRWGAFAQSILERGGPTPRNGNKSDQAHPPIHPTKYTNNLQGDEQRLYEFIVRHFLACCSQDAQGQETTVEIDIAQERFVAHGLMILARNYLDVYPYDHWSDKILPVYEQGSHFQPSTVEMVDGETSPPKLLTEADLIALMEKHGIGTDATHAEHIETIKARMYVGLTPDKRFLPGHLGMGLVEGYDSMGYEMSKPDLRAELEADLKLICDGKKDKFVVLRQQVQKYKQVFIEAVAKAKKLDEALAQYFGNGTELAQQEDIYPAMPEPIRKCPQCNKDMVLKTKKNGGFYLSCMGFPECRSAVWLPDSVLEASRDSSVCPVCQPHPVYRLKLKFKRGSLPPTMPLEFVCCIGGCDDTLREILDLRFSGGPPRASQPSGRLQANQSLNRMDNSQHPQPADSRQTGSSKALAQTLPPPTAAGESNSVTCNCGQEAVLLTVRKEGPNRGRQFFKCNGGSCNFFLWADSPNPGAGGPPALAYRPLGASLGCPPGPGIHLGGFGNPGDGSGSGTSCLCSQPSVTRTVQKDGPNKGRQFHTCAKPREQQCGFFQWVDENTAPGTSGAPSWTGDRGRTLESEARSKRPRASSSDMGSTAKKPRKCSLCHQPGHTRPFCPQNR
